Measured values published in the supplement of paper PMC9446081.
The campaign covered roughly 39,000 compounds. About 220 (0.56%) showed activity. The list shows a part of the results.

Test system: Escherichia coli K-12 BW25113
Test: relative growth (OD600 normalised to plate interquartile mean) (fraction); higher = less growth inhibition, active = 0.2 or less
Settings: 50 µM; LB; incubation time: overnight (16-24 h)
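Note: static incubation at 37 °C against the wild-type strain, values averaged over two biological replicates.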

SMILES	relative growth
C[C@@H]1CCCCO[C@H](CN(C)C(=O)Nc2ccccc2)[C@H](C)CN([C@@H](C)CO)C(=O)c2cc(NC(=O)Nc3cccc4ccccc34)ccc2O1	inactive: 1.02
COc1ccc(S(=O)(=O)N(C)C[C@H]2Oc3ccc(NS(=O)(=O)c4c(C)noc4C)cc3CC(=O)N([C@H](C)CO)C[C@@H]2C)cc1	inactive: 0.988
C=CCN([C@@H](Cc1ccccc1)[C@@H](O)c1cn(CCCNC(=O)C(=O)NC)nn1)S(=O)(=O)c1ccccc1[N+](=O)[O-]	inactive: 0.991
Cc1cc(C)n(-c2nc3c(c(=O)n(CCN4CCOCC4)c(=O)n3C)n2C)n1	inactive: 1.01
COc1ccccc1NC(=O)Nc1ccc2c(c1)OC[C@@H](C)N(Cc1ccccc1Cl)C[C@@H](C)[C@H](OC)CN(C)C2=O	inactive: 1.04
CC(C)NC(=O)N(C)C[C@@H]1Oc2c(NS(=O)(=O)c3ccc(Cl)cc3)cccc2C(=O)N([C@H](C)CO)C[C@H]1C	inactive: 1.02
Cc1noc(C)c1S(=O)(=O)Nc1ccc2c(c1)CC(=O)N([C@@H](C)CO)C[C@H](C)[C@H](CN(C)S(=O)(=O)c1cccs1)O2	inactive: 1.01
C[C@@H]1CCCCO[C@H](CN(C)Cc2ccccc2)[C@H](C)CN([C@@H](C)CO)C(=O)c2cc(NS(=O)(=O)c3cccs3)ccc2O1	inactive: 0.975
C[C@H](CO)N1C[C@H](C)[C@@H](CN(C)C(=O)Nc2ccc(C(F)(F)F)cc2)Oc2ccc(NC(=O)Nc3ccc(F)cc3)cc2CC1=O	inactive: 1.03
NC1(C(=O)Nc2ccc3nc(-c4ccc(F)cc4)oc3c2)CC1	inactive: 1
CNC(=O)C[C@H]1CC[C@H]2[C@@H](COC[C@H](O)CN2C(=O)c2ccc3c(c2)OCO3)O1	inactive: 0.985
C[C@H]1CN([C@@H](C)CO)C(=O)c2cc(NS(=O)(=O)c3ccc(Cl)cc3)ccc2O[C@@H]1CN(C)S(C)(=O)=O	inactive: 1.02
Cc1noc(C)c1S(=O)(=O)N(C)C[C@H]1Oc2ccc(NC(=O)C3CC3)cc2CC(=O)N([C@@H](C)CO)C[C@H]1C	inactive: 1.03
CCC(=O)OCC(=O)C1(OC(=O)CC)C(C)CC2C3CCC4=CC(=O)C=CC4(C)C3(Cl)C(O)CC21C (stereo not given)	inactive: 1
C[C@@H]1CN([C@@H](C)CO)C(=O)c2cccc(NC(=O)Nc3ccc(F)cc3)c2O[C@@H]1CN(C)Cc1ccc(C(F)(F)F)cc1	inactive: 0.992
C[C@H]1CN([C@@H](C)CO)C(=O)c2cc(NC(=O)CCN3CCOCC3)ccc2O[C@@H]1CN(C)S(=O)(=O)c1cn(C)cn1	inactive: 1.01
CN(C)CCn1cnc2ccccc2c1=O	inactive: 1.03
O=C(C[C@H]1CC[C@H](NS(=O)(=O)c2ccccc2F)[C@H](CO)O1)NCCCN1CCOCC1	inactive: 0.979
COc1ccc(-c2coc3cc(OC)ccc3c2=O)cc1	inactive: 1.07
Cc1ccc(S(=O)(=O)N(C)C[C@@H]2OCCCC[C@H](C)Oc3ccc(NC(=O)Nc4ccc(C(F)(F)F)cc4)cc3C(=O)N([C@@H](C)CO)C[C@H]2C)cc1	inactive: 1.03

SMILES	relative growth
OC[C@@H]1CCCO1	inactive: 0.986
C[C@H]1CN([C@@H](C)CO)C(=O)c2cccc(NC(=O)C3CC3)c2O[C@H]1CN(C)C(=O)NC1CCCCC1	inactive: 1.01
Cc1cc(C=Cc2ccc3cc(N(C)C)ccc3[n+]2C)c(C)n1-c1ccccc1.O=C([O-])c1cc2ccccc2c(Cc2c(O)c(C(=O)O)cc3ccccc23)c1O	inactive: 0.996
C[C@@H]1CN([C@@H](C)CO)C(=O)c2cc(NS(C)(=O)=O)ccc2O[C@H]1CN(C)Cc1ccc(C(=O)O)cc1	inactive: 1.02
C[C@H](CO)N1C[C@H](C)[C@H](CN(C)C(=O)Nc2ccc(F)cc2)OCCCC[C@H](C)Oc2ccc(NC(=O)c3ccncc3)cc2C1=O	inactive: 0.993
C[C@@H]1CN([C@H](C)CO)C(=O)c2cc(NC(=O)Cc3ccccc3)ccc2O[C@@H]1CN(C)Cc1ccc(C(=O)Nc2ccccc2N)cc1	inactive: 1
C[C@@H]1CN([C@H](C)CO)C(=O)c2cc(NS(=O)(=O)c3ccc(Cl)cc3)ccc2O[C@H]1CN(C)Cc1ccc(Oc2ccccc2)cc1	inactive: 1.01
NCc1ccccc1Cn1cccn1	inactive: 0.985
COc1ccc(C#Cc2ccc3c(c2)[C@]2(C(=O)N3)[C@H](C(=O)N3CCc4cc(OC)c(OC)cc4C3)[C@H]3C(=O)O[C@H](c4ccccc4)[C@H](c4ccccc4)N3[C@@H]2c2ccccc2OCCO)cc1	inactive: 1.02
O=c1n(-c2ccccc2)c(=O)n2n1CC(COc1ccccc1)=C1[C@@H](CCc3ccccc3)OB(O)C[C@@H]12	inactive: 1
CC1=NN(c2ccccc2)C(=O)C1	inactive: 0.929
C[C@H]1CN([C@@H](C)CO)C(=O)c2cc(NS(C)(=O)=O)ccc2O[C@H]1CN(C)S(C)(=O)=O	inactive: 0.984
Cc1noc(C)c1S(=O)(=O)Nc1ccc2c(c1)C(=O)N([C@@H](C)CO)C[C@H](C)[C@H](CN(C)Cc1ccc(C(=O)O)cc1)O2	inactive: 0.962
CCCNC(=O)N1C[C@@H](O)COC[C@H]2O[C@@H](CC(=O)NCc3ccncn3)CC[C@@H]21	inactive: 1
O=C(CNc1ccc2c(c1)oc1ccccc12)c1ccc(F)cc1	inactive: 0.997
CC(C)NC(=O)N1Cc2cc(C(=O)NC3CCCCC3)nc(-c3cccc(-c4cccnc4)c3)c2[C@H]1CCO	inactive: 0.968
COc1ccc(S(=O)(=O)N(C)C[C@H]2Oc3ccc(NC(=O)Nc4cccc5ccccc45)cc3C(=O)N([C@H](C)CO)C[C@@H]2C)cc1	inactive: 0.997
C[C@@H]1CN([C@@H](C)CO)C(=O)Cc2cc(NC(=O)Nc3cccc4ccccc34)ccc2O[C@@H]1CN(C)Cc1ccc(-c2ccccc2)cc1	inactive: 1.03
O=C(C[C@H]1CC=CC[C@H](Cc2ccc(F)cc2)C(=O)OC[C@@H](Cc2c[nH]c3ccccc23)NC1=O)NCCO	inactive: 0.986
COc1ccc(S(=O)(=O)Nc2ccc3c(c2)CC(=O)N([C@@H](C)CO)C[C@H](C)[C@@H](CN(C)Cc2ccc(C(=O)O)cc2)O3)cc1	inactive: 1
